Laboratory results taken from the supplement of paper PMC10670038.
Structures can show the parent of a compound that is named as a salt. ± gives the standard deviation of the averaged measurements. Over roughly 2,000 compounds, “relative cell viability vs DMSO, compound alone” has its median near 1.1; the lowest 2% begin near 0.29. The list shows a part of the results.

Test system: TE10
Experiment: relative cell viability vs DMSO, compound alone (fraction); TE10 is an esophageal squamous carcinoma line; higher = less cytotoxic
Conditions: 2 µM; 48 h
Protocol: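 TE10 ESCC cells (1,000/well, 384-well plates) were treated with Selleck bioactive library compounds at 2 uM alone for 48 h. Viability was read by CellTiter-Glo and expressed relative to DMSO wells. Two technical replicates (A, B).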

| Compound | relative cell viability |
| --- | --- |
| C=C1CC2(O)OC3(CC2C(C)C)C(C)CCC13 (stereo not drawn) [Curcumol] | 0.93 ± 0.042 |
| CCOC(=O)c1ncn2c1CN(C)C(=O)c1cc(F)ccc1-2 [Flumazenil] | 0.9985 ± 0.0051 |
| CNC(=O)c1ccccc1Nc1nc(Nc2ccc(N3CCOCC3)cc2OC)ncc1Cl | 0.758 ± 0.071 |
| CC1=C(C(=O)Nc2cc3cn[nH]c3cc2F)C(c2ccc(C(F)(F)F)cc2)CC(=O)N1 (stereo not drawn) | 1.24 ± 0.015 |
| Cc1cc(C)c2c(c1)[C@@H](N(Cc1cc(C(F)(F)F)cc(C(F)(F)F)c1)c1nnn(C)n1)CCCN2C[C@H]1CC[C@H](C(=O)O)CC1 | 1.13 ± 0.018 |
| CCCC1O[C@@H]2C[C@H]3[C@@H]4CCC5=CC(=O)C=C[C@]5(C)[C@H]4[C@@H](O)C[C@]3(C)[C@]2(C(=O)CO)O1 (stereo partly drawn) [Budesonide] | 1.11 ± 0.033 |
| COc1cc(C(C)=O)ccc1OCCCN1CCC(c2noc3cc(F)ccc23)CC1 [Iloperidone] | 1.24 ± 0.018 |
| CCOC(=O)[C@H](CCc1ccccc1)N[C@H]1CCCN2CCC[C@@H](C(=O)O)N2C1=O [Cilazapril Monohydrate] | 1.011 ± 0.004 |
| COc1ccc(/C=C\c2cc(OC)c(OC)c(OC)c2)cc1O [Combretastatin A4] | 1.04 ± 0.017 |
| c1cc(-c2cnn3cc(-c4ccc(N5CCNCC5)cc4)cnc23)c2cccnc2c1 | 0.0982 ± 0.0034 |
| NCCCC[C@@H]1NC(=O)[C@@H](Cc2ccccc2)NC(=O)[C@H](CC(=O)O)NC(=O)CNC(=O)[C@H](CCCN=C(N)N)NC1=O [Cyclo (-RGDfK)] | 1.1 ± 0.024 |
| CS(=O)(=O)c1ccc(-c2cnc(N)c(C(=O)Nc3ccccc3)n2)cc1 | 0.897 ± 0.19 |
| NS(=O)(=O)c1cc(Cl)c(Cl)c(S(N)(=O)=O)c1 [Dichlorphenamide] | 1.202 ± 0.0028 |
| O=C(Oc1ccccc1C(=O)O)c1ccccc1O [Sasapyrine] | 1.1 ± 0.026 |
| COc1c(C)c2c(c(O)c1C/C=C(\C)CCC(=O)O)C(=O)OC2 [Mycophenolic acid] | 0.805 ± 0.028 |
| O=C(O)C1=CO[C@@H](O[C@@H]2O[C@H](CO)[C@@H](O)[C@H](O)[C@H]2O)[C@@H]2C(CO)=CC[C@H]12 [Geniposidic acid] | 1.033 ± 0.008 |
| C[C@H](Cc1cc2c(c(C(N)=O)c1)N(CCCO)CC2)NCCOc1ccccc1OCC(F)(F)F [Silodosin] | 1.06 ± 0.12 |
| CN(C)CCOc1ccc(-c2nc(-c3ccncc3)c(-c3ccc4c(c3)CC/C4=N\O)[nH]2)cc1 | 1.27 ± 0.03 |
| Cc1ccc(-n2sc(=O)n(Cc3ccc(F)cc3)c2=O)cc1 | 1.02 ± 0.11 |
| Cc1cc(Cl)ccc1OCCCC(=O)NO [Droxinostat] | 1.2 ± 0.12 |
| O=C(NCCN1CCOCC1)c1ccc(Cl)cc1 | 1.17 ± 0.095 |
| C/C(=C\C(=O)Nc1ccccc1C(=O)O)c1ccc2ccccc2c1 | 1.19 ± 0.044 |
| O=C(c1ccc(/C=C/c2n[nH]c3ccccc23)cc1)N1CCNCC1 | 0.766 ± 0.045 |
| Nc1c(CC(=O)O)cccc1C(=O)c1ccc(Br)cc1 [Bromfenac Sodium] | 1.09 ± 0.046 |
| Cc1c(C(=O)Nc2ccc(N3CCC(N4CCOCC4)CC3)c(C#N)c2)cnn1-c1ccc(Cl)cc1 | 1.08 ± 0.024 |

| Compound | relative cell viability |
| --- | --- |
| C[C@H]1O[C@@H](n2cc(F)c(=O)[nH]c2=O)[C@H](O)[C@@H]1O [Doxifluridine] | 1.02 ± 0.031 |
| CC(C)(C)c1nc(-c2cccc(NS(=O)(=O)c3c(F)cccc3F)c2F)c(-c2ccnc(N)n2)s1 | 1.12 ± 0.033 |
| CC1(C)CC[C@]2(C(=O)O)CC[C@]3(C)C(=CC[C@@H]4[C@@]5(C)CC[C@H](O)C(C)(C)[C@@H]5CC[C@]43C)[C@@H]2C1 [Oleanolic Acid] | 1.16 ± 0.034 |
| O=C(O)CCCCC(CCSCc1ccccc1)SCc1ccccc1 (stereo not drawn) | 1.166 ± 0.0081 |
| O=c1c(-c2ccc(O)cc2)coc2cc(O)ccc12 [Daidzein] | 0.851 ± 0.038 |
| C[C@@H](O)[C@H]1C(=O)N2C(C(=O)O)=C(S[C@@H]3CN[C@H](C(=O)N(C)C)C3)[C@H](C)[C@H]12 [Meropenem] | 1.09 ± 0.068 |
| Cn1nnc(-c2ccc3c(c2)[nH]c2nc(Cc4ccccc4)nc(NC4CCC(N)CC4)c23)n1 (stereo not drawn) | 1.143 ± 0.0065 |
| CC(=O)O[C@H]1C[C@@H]2CC[C@@H]3[C@H](CC[C@@]4(C)[C@H]3C[C@H]([N+]3(C)CCCCC3)[C@@H]4OC(C)=O)[C@@]2(C)C[C@@H]1N1CCCCC1 [Vecuronium Bromide] | 1.17 ± 0.097 |
| CC1(C)O[C@@H]2C[C@H]3[C@@H]4CCC5=CC(=O)CC[C@]5(C)[C@@]4(F)[C@@H](O)C[C@]3(C)[C@]2(C(=O)CCl)O1 [Halcinonide] | 0.816 ± 0.11 |
| C[C@]12C=CC(=O)C=C1CC[C@H]1[C@@H]3C[C@@H](O)[C@](O)(C(=O)CO)[C@@]3(C)C[C@H](O)[C@@]12F [Triamcinolone] | 0.9665 ± 0.0039 |
| N#Cc1ccc(COC[C@H]2O[C@@H](n3c(NCc4ccc(Cl)c(Cl)c4)nc4c(N)ncnc43)[C@H](O)[C@@H]2O)cc1 | 0.991 ± 0.04 |
| C[C@@H]1O[C@@H](OC[C@H]2O[C@@H](Oc3c(-c4ccc(OCCO)c(OCCO)c4)oc4cc(OCCO)cc(O)c4c3=O)[C@H](O)[C@@H](O)[C@@H]2O)[C@H](O)[C@H](O)[C@H]1O [Troxerutin] | 1.11 ± 0.047 |
| CCN(CC)C(=O)/C(C#N)=C/c1cc(O)c(O)c([N+](=O)[O-])c1 [Entacapone] | 0.892 ± 0.017 |
| OC(c1cc(C(F)(F)F)nc2c(C(F)(F)F)cccc12)C1CCCCN1 (stereo not drawn) [Mefloquine HCl] | 1.09 ± 0.11 |
| Cc1coc2c1C(=O)C(=O)c1c-2ccc2c1CCCC2(C)C [Tanshinone IIA] | 0.545 ± 0.0096 |
| CC[C@H]1OC(=O)C[C@@H](O)[C@H](C)[C@@H](O[C@@H]2O[C@H](C)[C@@H](O)[C@H](N(C)C)[C@H]2O)[C@@H](CCN2C[C@H](C)C[C@H](C)C2)C[C@@H](C)C(=O)/C=C/C(C)=C/[C@@H]1CO[C@@H]1O[C@H](C)[C@@H](O)[C@@H](OC)[C@H]1OC [Tilmicosin] | 1 ± 0.039 |
| CNCCCC12CCC(c3ccccc31)c1ccccc12 [Maprotiline HCl] | 1.104 ± 0.011 |
| CCc1c(O)cc(O)c(C(=O)c2ccc(OCCN3CCOCC3)c(OC)c2)c1CC(=O)N(CCOC)CCOC | 0.546 ± 0.009 |
| CN(C)Cc1cccc(N=C(c2ccccc2)c2c(O)[nH]c3cc(C(=O)N(C)C)ccc23)c1 | 0.903 ± 0.035 |
| O=c1cc(-c2ccccc2)oc2cc(O)c(O)c(O)c12 [Baicalein] | 1.04 ± 0.011 |
| COc1cc(C2Oc3cc([C@H]4Oc5cc(O)cc(O)c5C(=O)[C@@H]4O)ccc3OC2CO)ccc1O (stereo partly drawn) [Silymarin] | 0.976 ± 0.13 |
| COc1cc(C2Oc3cc([C@H]4Oc5cc(O)cc(O)c5C(=O)[C@@H]4O)ccc3OC2CO)ccc1O (stereo partly drawn) [Silibinin] | 1.12 ± 0.017 |
| CC(=O)N[C@@H](CS)C(=O)O [Acetylcysteine] | 1.03 ± 0.031 |
| C[C@]1(c2nc3c(C(N)=O)cccc3[nH]2)CCCN1 [Veliparib (ABT-888)] | 1.02 ± 0.18 |
| O=C(O)Cc1cccc(OCCCN(Cc2cccc(C(F)(F)F)c2Cl)CC(c2ccccc2)c2ccccc2)c1 | 1.15 ± 0.052 |

| Compound | relative cell viability |
| --- | --- |
| COc1cccc2cc(-c3nc([C@H]4CC[C@H](C(=O)O)CC4)n4ncnc(N)c34)[nH]c12 | 0.667 ± 0.0089 |
| O=C1CCC[C@@H]2[C@H]3CCC[N+]4([O-])CCC[C@@H](CN12)[C@@H]34 (stereo partly drawn) [Oxymatrine] | 0.93 ± 0.12 |
| CCN(CC)CCOC(=O)c1ccc(N)cc1 [Procaine HCl] | 1.16 ± 0.077 |
| Clc1ccc(C(Cn2ccnc2)OCc2ccc(Sc3ccccc3)cc2)c(Cl)c1 (stereo not drawn) [Fenticonazole Nitrate] | 1.11 ± 0.018 |
| CC[C@H](C)C(=O)O[C@H]1C[C@@H](C)C=C2C=C[C@H](C)[C@H](CC[C@@H]3C[C@@H](O)CC(=O)O3)[C@H]21 [Lovastatin] | 1.09 ± 0.031 |
| CCCCNc1cc(C(=O)O)cc(S(N)(=O)=O)c1Oc1ccccc1 [Bumetanide] | 1.33 ± 0.021 |
| CC(C)n1c(/C=C/C(O)CC(O)CC(=O)O)c(-c2ccc(F)cc2)c2ccccc21 (stereo not drawn) [Fluvastatin Sodium] | 0.964 ± 0.063 |
| O=c1ccn([C@@H]2O[C@H](CO)[C@@H](O)[C@H]2O)c(=O)[nH]1 [Uridine] | 1.08 ± 0.059 |
| OC(CC1c2ccccc2-c2cncn21)C1CCCCC1 (stereo not drawn) | 1.13 ± 0.076 |
| COc1ccc(C[C@H](N)C(=O)N[C@H]2[C@@H](O)[C@H](n3cnc4c(N(C)C)ncnc43)O[C@@H]2CO)cc1 [Puromycin 2HCl] | 0.133 ± 0.042 |
| NC(=O)OCC(COC(N)=O)c1ccccc1 [Felbamate] | 1 ± 0.23 |
| CCC[S+]([O-])c1ccc2[nH]c(NC(=O)OC)nc2c1 (stereo not drawn) [Albendazole Oxide] | 1 ± 0.051 |
| Cc1ccnc(NS(=O)(=O)c2ccc(N)cc2)n1 [Sulfamerazine] | 1.18 ± 0.024 |
| COC(=O)N[C@H](C(=O)N[C@@H](Cc1ccccc1)[C@@H](O)CN(Cc1ccc(-c2ccccn2)cc1)NC(=O)[C@@H](NC(=O)OC)C(C)(C)C)C(C)(C)C [Atazanavir Sulfate] | 1.06 ± 0.041 |
| CNC[C@H](O)[C@@H](O)[C@H](O)[C@H](O)CO [Meglumine] | 1.008 ± 0.0073 |
| COC(=O)Nc1ccc(-c2nc(N3CCOCC3)c3cnn(C4CCN(C(=O)OC)CC4)c3n2)cc1 | 0.844 ± 0.13 |
| Cc1c(Nc2ncccc2C(=O)O)cccc1C(F)(F)F [Flunixin Meglumin] | 0.994 ± 0.028 |
| CC[C@H](c1ccc(O)cc1)[C@@H](CC)c1ccc(O)cc1 [Hexestrol] | 1.14 ± 0.017 |
| OC[C@@H](O)CN1CCN(c2ccccc2)CC1 [Levodropropizine] | 1.15 ± 0.065 |
| N#CC1(c2ccc(NC(=O)c3cccnc3NCc3ccncc3)cc2)CCCC1 [Apatinib] | 1.12 ± 0.054 |
| CC(ONC(=O)c1cc(C(F)(F)F)cc(C(F)(F)F)c1)C(=O)Nc1ccc(Cl)cc1 (stereo not drawn) | 1.07 ± 0.024 |
| CN1CCN(C(=O)c2cc3cc(Cl)ccc3[nH]2)CC1 | 1.14 ± 0.064 |
| CC(=O)OCC(=O)[C@@]1(O)CC[C@H]2[C@@H]3CCC4=CC(=O)C=C[C@]4(C)[C@H]3[C@@H](O)C[C@@]21C [Prednisolone Acetate] | 0.947 ± 0.074 |
